Experimental data as given in ChEMBL document CHEMBL4888484, “Replenishing the malaria drug discovery pipeline: Screening and hit evaluation of the MMV Hit Generation Library 1 (HGL1) against asexual blood stage Plasmodium falciparum ,using a nano luciferase reporter read-out” (2022).
The campaign covered roughly 150,000 compounds. About 540 (0.36%) showed an effect of 50% or more. The list shows a part of the results.

test system: Plasmodium falciparum; test: Primary screen in NF54 nanoGlo assay, in single point, at 2uM, 72h; a lower Z score goes with more inhibition; assay type: functional, Erythrocyte; conditions: timepoint 72 hour

| Compound | % Inhibition [%] | Z score |
| --- | --- | --- |
| CCn1cnnc1CN(C)Cc1cc(C#N)n(C)c1C | -20 | 2.53 |
| CCCCN(CC)S(=O)(=O)c1c(C)nc(O)nc1O | -6 | 0.68 |
| O=C1N(CCCc2ccccc2)CCC[C@@]1(O)CNC1CCC1 | -15 | 1.98 |
| CCC(=O)Nc1nc2ccc(NC(=O)Nc3ccccc3Cl)cc2s1 | 2 | -0.38 |
| CC(=O)N1CCCN(c2cc(-c3ccccc3)nc3ncnn23)CC1 | -37 | 4.4 |
| Cn1c(C2CCC2)nc2cc(C(=O)NC(C)(C)C)cc(NC(=O)[C@@H]3CCCO3)c21 | -10 | 1.91 |
| CC(C)c1nnc(Cn2cc(C#N)cn2)n1C | -8 | 0.94 |
| O=S(=O)(c1c(F)cccc1F)N1CCCCCC1 | -18 | 2.31 |
| CC(C)c1cccc2sc(N(C[C@H]3CCCO3)C(=O)Cc3ccc4c(c3)OCO4)nc12 | -7 | 0.83 |
| CCCn1cc(-c2ccnc(NCCC3(O)CCN(C)CC3)n2)c(C)n1 | -10 | 1.96 |
| O=C1CN(c2ccc(C(=O)N3CCC(c4nc5cc(F)ccc5[nH]4)CC3)cc2)C(=O)N1 | -2 | 0.34 |
| CCC(=O)N1CCC(Nc2cccc(-c3nc(C4CC4)n[nH]3)c2)CC1 | 36 | -5.25 |
| Cc1cc(Br)c2c(c1)CN(c1cncc(C(N)=O)n1)CC2 | 1 | -0.08 |
| Cc1[nH][nH]c(=O)c1Cc1nc(CCc2ccccc2)nn1-c1ccc(F)cc1 | -12 | 1.81 |
| CN(C(=O)c1oc2ccccc2c1Cn1cccn1)C1(CN)CCC1 | 15 | -1.85 |
| Cc1cc(=O)n2c3ccccc3n(C)c2n1 | -2 | 0.35 |
| CCNC(=O)c1cc(CNCC[C@H](C)c2ccc(C)o2)cc(NC(=O)c2ccccn2)c1 | -12 | 1.56 |
| O=C(N[C@H]1CCN2C(=O)c3cc(/C=C/c4ccccc4)ccc3NC(=O)[C@H]12)c1cnccn1 | 0 | 0 |
| O=C1CC[C@@]2(CCCN(C(=O)c3cc(C4CC4)n[nH]3)C2)CN1Cc1cccnc1 | 0 | 0.01 |
| O=C(NC[C@H]1CCCN(Cc2ccco2)C1)c1ccc2nnnn2c1 | -4 | 0.84 |
| Cn1nc2c(c1S(=O)(=O)N1CC[C@H](c3ncccn3)C1)CCCC2 | -4 | 0.5 |
| COCC(=O)N1CCOC(CN(CC2CCCO2)C(=O)c2ccc(OC)cc2)C1 (stereo unspecified) | -8 | 1.51 |

| Compound | % Inhibition [%] | Z score |
| --- | --- | --- |
| O=C(NC[C@@H]1CCCN(C(=O)C2CC=CC2)C1)C1CC=CC1 | 4 | -0.49 |
| CC(CCc1ccccc1F)C(=O)NC1CCCN(CC(N)=O)C1 (stereo unspecified) | 2 | -0.19 |
| COc1nccn2nc(-c3ccc(C)cc3)cc12 | -11 | 1.25 |
| Cc1nn(C)c(C)c1CNC(=O)c1ccc(CN2CC[C@@](O)(c3ccccc3)[C@H]3CCCC[C@@H]32)[nH]c1=O | -10 | 1.12 |
| Cc1cc(CN2CCN(C(=O)Cn3cnc4ccccc4c3=O)CC2)on1 | -1 | 0.23 |
| CC1CC(Nc2ncnc3ccccc23)CC(C)O1 (stereo unspecified) | -2 | 0.42 |
| CC(C)C(C(=O)N(C)[C@@H]1COC[C@H]1O)c1cccnc1 (stereo partly specified) | -29 | 3.42 |
| O=C(C[C@H]1COCCN1C(=O)CCn1nnc2ccccc21)N1CCCC1 | 0 | 0.01 |
| COCCNC(=O)CCN(CCOC)C(=O)c1cc(-c2cc(C)ccc2C)on1 | -5 | 0.72 |
| CN1CCCN(C(=O)C(=O)Nc2ccon2)CC1 | -13 | 2.18 |
| CC(C)N(CC1CCCCO1)CC(O)C(F)(F)F (stereo unspecified) | -3 | 0.48 |
| O=C(CC1CC2CCC1C2)NCCCn1cn[nH]c1=O (stereo unspecified) | 5 | -0.62 |
| Cc1ccc(-c2cc(C(=O)N3CCN(c4ccc(F)cc4)CC3)c(C)[nH]2)cc1 | -14 | 1.81 |
| COc1cc(=O)n(-c2ccccc2)cc1C(=O)NCCn1nccn1 | -6 | 0.95 |
| CCC(CC)CN(CCC#N)C(=O)Nc1ccc(C(N)=O)c(Cl)c1 | -5 | 0.55 |
| CC1(C)CN(CCOc2cccc(S(C)(=O)=O)c2)c2ccccc2O1 | -3 | 0.52 |
| CCN(C)C1(CNc2nc(OC)cc(OC)n2)CCCC1 | -8 | 1.17 |
| Cn1c(C2COCCO2)nnc1N1CCOC(c2ccccc2F)C1 (stereo unspecified) | 6 | -0.84 |
| CC(=O)Nc1nc(C(=O)NCCc2ccc3c(c2)OCO3)cs1 | -19 | 2.05 |
| CC1CN(C(=O)CCCc2ccc3[nH]c(=O)[nH]c3c2)CC(C)N1 (stereo unspecified) | -2 | 0.34 |
| CCc1nc(CN(CC(C)C)C(=O)NC(C)(C)C)[nH]c(=O)c1Cc1ccc(OC)cc1 | -18 | 1.78 |
